The record followed here is the supplement of paper PMC10185492.

This is one part of the list. Read counts after selection give these values, which scatter widely.

In the test the test system is SARS-CoV-2 3CLpro (nsp5). Description: substrate phage enrichment score (protease-eluted vs HEPES control, +1 offset) (ratio); higher = better cleaved substrate. Conditions: selection round: 4; protease elution time: 15 min. As for the experimental part:
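Random heptapeptide substrate phage display (M13 pIII fusion, heptapeptide between an N-terminal biotinylated AviTag GLNDIFEAQKIEWHE and pIII; phages immobilised on streptavidin) eluted by cleavage with 50 nM protease in 20 mM HEPES at 37 °C. Selected phages were NGS sequenced, and the enrichment score is (reads in protease sample + 1)/(reads in HEPES blank-selection control + 1).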
With KGAAQNG, the “substrate phage enrichment score” value is above 30.

Take CPSSLYG: the “substrate phage enrichment score” value worked out at 8.67.

Regarding QLNFQGG, the “substrate phage enrichment score” value is 3.8.

As for HCYHDQR, the “substrate phage enrichment score” value came out at 1.

Take ATRQEEH: the “substrate phage enrichment score” value stood at 0.714.

Take TPALQSY: the “substrate phage enrichment score” value was 11.

On to QVRGQNR, for which the “substrate phage enrichment score” value is 0.846.

In the case of CNAGRLT, the “substrate phage enrichment score” value is 2.29.

For WRSSATK, the “substrate phage enrichment score” value was above 28.

As for PLLYQPK, the “substrate phage enrichment score” value was determined as 1.

Take PTAHHHH: the “substrate phage enrichment score” value came out at 0.244.

As for SHNVAPR, the “substrate phage enrichment score” value was above 21.

As for LFEWHSP, the “substrate phage enrichment score” value is 1.5.

With ANLQSMH, the “substrate phage enrichment score” value is above 34.

Take RYSPSTV: the “substrate phage enrichment score” value amounted to 0.533.

With PDAAHHH, the “substrate phage enrichment score” value is 1.94.

Regarding TESKCYP, the “substrate phage enrichment score” value is above 95.

Consider HTQRCQA, for which the “substrate phage enrichment score” value is above 23.

With CTQDLTG, the “substrate phage enrichment score” value came out at 0.087.

Take APVTADQ: the “substrate phage enrichment score” value came out at 0.316.

Turning to KRHECPC, the “substrate phage enrichment score” value is 4.33.

Regarding CKSKSEN, the “substrate phage enrichment score” value was determined as 1.93.

Turning to CATGRLS, the “substrate phage enrichment score” value turned out to be 0.263.

With STSFAPG, the “substrate phage enrichment score” value is 0.225.
